Experimental data: the supplement of paper PMC10126150
Values marked as one replicate rest on one cluster of the flow cell; about a third of the high ones do not repeat.

These sequences were tested on ATP (assay: switch fluorescence ratio, 500 uM ATP over buffer (Cy3 cluster intensity, sum of 5 cycles each) (fold (ratio)); higher = stronger signal-on switching upon ATP binding; sequences stand for … in TCGTCGGCAGCGTCAGATGTGTATAAGAGACAGTTTTTTTTTTTTTTTTTTTTTTTTT…TC). Conditions: aptamer strand: ATP DNA aptamer (quencher-CACCTGGGGGAGTATTGCGGAGGAAGG + anchor), 100 nM annealed; ATP concentration: 500 uM; one replicate.
Summary of the method: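 Exposure to 500 uM ATP lasted 15 min at 22 °C before imaging, and a selection-buffer image was taken beforehand, for Cy3-labelled switching-strand clusters on a modified Illumina MiSeq flow-cell annealed to 100 nM quencher-labelled ATP aptamer. Five buffer/ATP cycles were run with NaOH stripping and re-annealing between them. The fluorescence ratio per cluster is summed target-cycle over summed buffer-cycle Cy3 intensity, averaged per switch-domain sequence. Clusters outside 100-1000 RFU were excluded.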
In the case of ATGGCTTC, the switch fluorescence ratio was 0.967.
For ATGGCTTTAC, the switch fluorescence ratio was 1.12.
For ATGGGACCTA, the switch fluorescence ratio was 1.02.
With ATGGGAGGCA the switch fluorescence ratio was 0.989.
With ATGGGCGAAG the switch fluorescence ratio was 0.996.
With ATGGGCGGAG the switch fluorescence ratio was 0.975.
Sequence ATGGGCTTTA has a switch fluorescence ratio of 0.978.
In the case of ATGGGGAATC, the switch fluorescence ratio was 0.983.
For ATGGGGCTCG, the switch fluorescence ratio was 0.98.
ATGGGGTAAA showed a switch fluorescence ratio of 0.968.
ATGGGGTAG was tested, and the switch fluorescence ratio was 1.01.
ATGGGGTCAC showed a switch fluorescence ratio of 0.99.
For ATGGGGTGGA, the switch fluorescence ratio was 1.03.
ATGGTACTGT gave a switch fluorescence ratio of 1.09.
With ATGGTCATGG the switch fluorescence ratio was 1.04.
Work on ATGGTCCCGT yielded a switch fluorescence ratio of 1.01.
Work on ATGGTCTTCA yielded a switch fluorescence ratio of 0.988.
Work on ATGGTGGAAA yielded a switch fluorescence ratio of 1.01.
ATGGTGGT showed a switch fluorescence ratio of 0.972.
ATGGTGTCTG was tested, and the switch fluorescence ratio was 0.983.
Work on ATGGTTCGGT yielded a switch fluorescence ratio of 1.01.
ATGTAAAGCT showed a switch fluorescence ratio of 1.15.
ATGTAAATTG showed a switch fluorescence ratio of 1.01.
For ATGTAACTT, the switch fluorescence ratio was 1.02.
ATGTAATCGT gave a switch fluorescence ratio of 1.02.
With ATGTACGTAT the switch fluorescence ratio was 1.02.
ATGTAGCGTT showed a switch fluorescence ratio of 1.02.
With ATGTAGGATC the switch fluorescence ratio was 0.995.
ATGTAGGCGC gave a switch fluorescence ratio of 0.994.
ATGTATGAGC gave a switch fluorescence ratio of 1.01.
For ATGTATGCTC, the switch fluorescence ratio was 1.01.
With ATGTATTCC the switch fluorescence ratio was 1.02.
Work on ATGTCAGGAT yielded a switch fluorescence ratio of 0.995.
ATGTCATAAG showed a switch fluorescence ratio of 1.
With ATGTCATAGC the switch fluorescence ratio was 1.04.
For ATGTCCAGAG, the switch fluorescence ratio was 1.01.
With ATGTCCGTAT the switch fluorescence ratio was 0.855.
With ATGTCCTACC the switch fluorescence ratio was 1.32.
Work on ATGTCGAGTT yielded a switch fluorescence ratio of 1.04.
ATGTCGTTGT was tested, and the switch fluorescence ratio was 0.991.
For ATGTGAATTT, the switch fluorescence ratio was 0.978.
In the case of ATGTGACACA, the switch fluorescence ratio was 1.04.
Sequence ATGTGCACAT has a switch fluorescence ratio of 1.05.
For ATGTGCATGC, the switch fluorescence ratio was 0.968.
With ATGTGCCTGG the switch fluorescence ratio was 1.03.
ATGTGCGGAT showed a switch fluorescence ratio of 1.03.
For ATGTGGATCA, the switch fluorescence ratio was 1.01.
ATGTGGCGTA showed a switch fluorescence ratio of 1.
ATGTGGTTCG gave a switch fluorescence ratio of 0.998.
ATGTGGTTTA was tested, and the switch fluorescence ratio was 1.04.
ATGTGTCCGA gave a switch fluorescence ratio of 1.02.
ATGTGTCCTC showed a switch fluorescence ratio of 1.02.
With ATGTGTTTTG the switch fluorescence ratio was 1.1.
In the case of ATGTTAATCC, the switch fluorescence ratio was 1.04.
In the case of ATGTTATAG, the switch fluorescence ratio was 1.06.
Work on ATGTTGTGG yielded a switch fluorescence ratio of 1.03.
Work on ATGTTTTAA yielded a switch fluorescence ratio of 1.01.
Work on ATGTTTTGTT yielded a switch fluorescence ratio of 0.985.
Sequence ATGTTTTTCC has a switch fluorescence ratio of 1.01.
ATTAAAACCG showed a switch fluorescence ratio of 1.1.
Sequence ATTAAACCCT has a switch fluorescence ratio of 1.2.
With ATTAAAGT the switch fluorescence ratio was 1.
In the case of ATTAAAGTGT, the switch fluorescence ratio was 1.02.
Sequence ATTAAATTAT has a switch fluorescence ratio of 0.979.
For ATTAACGGTC, the switch fluorescence ratio was 0.987.
Work on ATTAACTCTA yielded a switch fluorescence ratio of 1.02.
Sequence ATTAAGAGC has a switch fluorescence ratio of 1.
Sequence ATTAAGTAGG has a switch fluorescence ratio of 1.02.
ATTAATATTT gave a switch fluorescence ratio of 1.01.
For ATTAATGGTG, the switch fluorescence ratio was 1.03.
In the case of ATTAATTCAG, the switch fluorescence ratio was 0.952.
In the case of ATTAATTCTC, the switch fluorescence ratio was 1.08.
For ATTAATTTAG, the switch fluorescence ratio was 0.977.
For ATTACATCTT, the switch fluorescence ratio was 1.01.
Work on ATTACCATTG yielded a switch fluorescence ratio of 1.01.
Work on ATTACCGTGC yielded a switch fluorescence ratio of 1.1.
In the case of ATTACTAAAG, the switch fluorescence ratio was 1.05.
In the case of ATTACTGCTG, the switch fluorescence ratio was 1.04.
ATTAGCAATC was tested, and the switch fluorescence ratio was 3.36.
ATTAGGCAAA was tested, and the switch fluorescence ratio was 1.02.
With ATTAGGTT the switch fluorescence ratio was 0.986.
Sequence ATTAGTCCAC has a switch fluorescence ratio of 1.04.
Sequence ATTAGTTAAC has a switch fluorescence ratio of 1.05.
ATTATAACA was tested, and the switch fluorescence ratio was 1.03.
With ATTATAAGAT the switch fluorescence ratio was 1.06.
Work on ATTATAATAC yielded a switch fluorescence ratio of 1.13.
ATTATAATT was tested, and the switch fluorescence ratio was 0.971.
ATTATACTAT was tested, and the switch fluorescence ratio was 1.
ATTATATTCC showed a switch fluorescence ratio of 1.01.
In the case of ATTATCTGGA, the switch fluorescence ratio was 1.01.
ATTATCTTCA was tested, and the switch fluorescence ratio was 1.03.
With ATTATGATCT the switch fluorescence ratio was 0.985.
ATTATGGATA was tested, and the switch fluorescence ratio was 0.991.
With ATTATTAAAG the switch fluorescence ratio was 1.04.
ATTATTAGCC showed a switch fluorescence ratio of 0.998.
In the case of ATTATTATGA, the switch fluorescence ratio was 0.987.
ATTATTCTAT showed a switch fluorescence ratio of 1.02.
ATTATTGTGG was tested, and the switch fluorescence ratio was 1.01.
Work on ATTATTTCGA yielded a switch fluorescence ratio of 0.976.
For ATTATTTCT, the switch fluorescence ratio was 0.961.
Work on ATTATTTTTC yielded a switch fluorescence ratio of 1.
